Residue numbers refer to the chain shown, from its start.

Data on 3 molecules can be found in US20260209325A1, “SELECTIVE AND POTENT INHIBITORY ANTIBODIES OF MYOSTATIN ACTIVATION” (SCHOLAR ROCK, INC., priority 2022, published 2026).

Assay [1] addresses murine pro-myostatin (Mus musculus, UniProt O08689). The assay can be described thus: Biacore 8k SPR binding affinity, murine pro-myostatin. The text has this: (§1) The Biacore™ 8k SPR system was utilized to evaluate the binding affinity of myostatin antibodies to biotinylated human, murine, and cyno pro-myostatin. Biotin CAPture kit and sensor chips (Cytiva) were utilized in these experiments to immobilize the various antigens, followed by flowing a range of concentrations of each of the test antibodies.
In general terms: In SPR one partner is held on a chip, and binding of the other changes the refractive index at the surface.

The target in assay [2] is cyno pro-myostatin (Macaca fascicularis, UniProt Q95J86). Kind of assay: Biacore 8k SPR binding affinity, cyno pro-myostatin. The arrangement: species or system cynomolgus monkey.
Text: as §1

The target of assay [3] is human pro-myostatin (Homo sapiens, UniProt O14793). The assay can be described thus: Biacore 8k SPR binding affinity, human pro-myostatin.
Text: as §1

B1: Ab115: anti-pro/latent myostatin antibody; CDR sequences in Table 2d (antibody)
heavy: QVQLVQSGAEVKKPGASVKVSCKVSGYAFTNYNIHWVRQAPGKGLEWMGGINPRTGGTIYAQKFQGRVTMTEDTSTDTAYMELSSLKSEDTAVYYCAKDIYTGVAVAGSGMDYWGQGTLVTVSSASTKGPSVFPLAPCSRSTSESTAALGCLVKDYFPEPVTVSWNSGALTSGVHTFPAVLQSSGLYSLSSVVTVPSSSLGTKTYTCNVDHKPSNTKVDKRV[human IgG4 Fc with S228P (EU numbers) left out]
light: DIQMTQSPSSVSASVGDRVTITCRASQGISTHLAWYQQKPGKAPKLLIYGASNLESGVPSRFSGSGSGTDFTLTISSLQPEDFANYYCQQANSFPWTFGGGTKVEIKRTVAAPSVFIFPPSDEQLKSGTASVVCLLNNFYPREAKVQWKVDNALQSGNSQESVTEQDSKDSTYSLSSTLTLSKADYEKHKVYACEVTHQGLSSPVTKSFNRGEC
Regarding B1, the figures for the “Ka” value in assay [1], in assay [2] and in assay [3] were 450000 M⁻¹ s⁻¹, 443000 M⁻¹ s⁻¹ and 406000 M⁻¹ s⁻¹, respectively. The “Kd (1/s)” value amounted to 0.00137 s⁻¹ in assay [1], 0.00139 s⁻¹ in assay [2] and 0.00123 s⁻¹ in assay [3].

B2: Ab129: anti-pro/latent myostatin antibody; CDR sequences in Table 2d (antibody)
heavy: QVQLVQSGAEVKKPGASVKVSCKVSGFNYPRSAIHWVRQAPGKGLEWMGGINPSGEATIYAQKFQGRVTMTEDTSTDTAYMELSSLKSEDTAVYYCARDSSPQWLVTAGVYFYGMDVWGQGTTVTVSSASTKGPSVFPLAPCSRSTSESTAALGCLVKDYFPEPVTVSWNSGALTSGVHTFPAVLQSSGLYSLSSVVTVPSSSLGTKTYTCNVDHKPSNTKVDKRV[human IgG4 Fc with S228P (EU numbers) left out]
light: B1 light with G28S, T31N, H32W, G50H, N53T, E55Q, A91Y, N92S, F94T
As for B2, the “Ka” value was determined as 117000 M⁻¹ s⁻¹ in assay [1], 411000 M⁻¹ s⁻¹ in assay [2] and 140000 M⁻¹ s⁻¹ in assay [3]. Besides, the “Kd (1/s)” value was 0.000496 s⁻¹ in assay [1], 0.000534 s⁻¹ in assay [2] and 0.000307 s⁻¹ in assay [3].

B3: Ab114: anti-pro/latent myostatin antibody; CDR sequences in Table 2d (antibody)
heavy: QVQLVQSGAEVKKPGASVKVSCKVSGGTFRSYTIHWVRQAPGKGLEWMGGMNPSSGHTIYAQKFQGRVTMTEDTSTDTAYMELSSLKSEDTAVYYCARGLDYGEGYYYYGMDVWGQGTTVTVSSASTKGPSVFPLAPCSRSTSESTAALGCLVKDYFPEPVTVSWNSGALTSGVHTFPAVLQSSGLYSLSSVVTVPSSSLGTKTYTCNVDHKPSNTKVDKRV[human IgG4 Fc with S228P (EU numbers) left out]
light: DIQMTQSPSSVSASVGDRVTITCRASQGISESLAWYQQKPGKAPKLLIYSASSLESGVPSRFSGSGSGTDFTLTISSLQPEDFANYYCQQGYSSPPYTFGGGTKVEIKRTVAAPSVFIFPPSDEQLKSGTASVVCLLNNFYPREAKVQWKVDNALQSGNSQESVTEQDSKDSTYSLSSTLTLSKADYEKHKVYACEVTHQGLSSPVTKSFNRGEC
Turning to B3, the “Ka” value is 3.31e+06 M⁻¹ s⁻¹ in assay [1], 3.49e+06 M⁻¹ s⁻¹ in assay [2] and 4.23e+06 M⁻¹ s⁻¹ in assay [3]. Moreover, the “Kd (1/s)” value in assay [1] worked out at 0.0208 s⁻¹; in assay [2] it was 0.00908 s⁻¹; in assay [3], 0.00735 s⁻¹.
